Out of some 45,000 compounds screened, about 200 (0.44%) were called active. Roughly 7% stayed inconclusive and do not appear here. Calls follow the shape of the dose curve; as a rule, active = well fitted activation curve with a large enough effect; inconclusive = small, poorly fitted or top-dose-only effect; inactive = no such curve, though single readings can be large or run the other way. Some of the results follow.

This experiment can be described thus: qHTS of TDP-43 Inhibitors: NCGC Sytravon Library Screen. Also: 0% is about no effect; nearly all actives have a fitted effect of over 55% in size. The conditions noted are these: yeast TDP-43 toxicity rescue, BacTiter-Glo growth, 24 h; series mostly up to 46.1 µM; growth rescue (activation): at the top concentration. In a few lines: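 TDP-43-expressing yeast, pregrown in raffinose, seeded at OD600 0.02 in galactose medium with compound for 24 hr at 30 deg C. Growth read by BacTiter-Glo luminescence, so rescue of toxicity appears as activation.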
On the technique in general: In qHTS, concentration-response curves come from the screen itself.
Regarding `C=Cc1ccc(Cn2c(C(=O)OC)cc3sc(C)cc32)cc1`, the “growth rescue (activation)” value was inactive: 10.3%.

`Cc1c(C(=O)N2CCC2)oc2ccc(Cl)cc12`: the “growth rescue (activation)” value was inactive: 13.2%.

Turning to `CCOc1ccccc1Nc1nnc(SCC(=O)NCC2CCCO2)s1` (centres undefined), the “growth rescue (activation)” value is inactive: -3.22%.

Turning to `Cc1ccc(NC(=O)CSc2nncc3ccccc23)cc1`, the “growth rescue (activation)” value was inactive: 12.8%.

Turning to `Cc1ccc(C)c(NC(=O)COC(=O)CC2CC3CCC2C3)c1` (centres undefined), the “growth rescue (activation)” value is inactive: 3.14%.

Take `Cc1ccc(C(=O)OCC(=O)N2c3ccccc3NC(=O)C2(C)C)cc1S(=O)(=O)N1CCCCC1`: the “growth rescue (activation)” value is inactive: 23.8%.

`Cc1cc(NC(=O)CCc2ccccc2)c([N+](=O)[O-])cc1C`: the “growth rescue (activation)” value was inactive: 36.9%.

As to `Cc1cc(Br)ccc1OCCNCc1ccccc1`, the “growth rescue (activation)” value is inactive: 3.95%.

Turning to `Cc1ccc(-c2cc(C(=O)O)c3sc(N4CCCCC4)nc3n2)cc1`, the “growth rescue (activation)” value was inactive: -0.956%.

In the case of `O=[N+]([O-])c1ccc(NC(=S)NCCc2ccc(F)cc2)cc1`, the “growth rescue (activation)” value is inactive: -90%.

For the compound `Cc1cc2cc(CCNS(=O)(=O)c3ccc(F)cc3)c(=O)[nH]c2cc1C`, the “growth rescue (activation)” value is inactive: 8.3%.

For the compound `O=C1CN(C(=O)c2ccco2)C(c2ccccc2)c2cc(Cl)ccc2N1` (centres undefined), the “growth rescue (activation)” value was inactive: 26.3%.

As for `O=C(O)CCCN1C(=O)C2C3c4ccccc4C(c4ccccc43)[C@@H]2C1=O` (some centres undefined), the “growth rescue (activation)” value is inactive: 16.9%.

As for `Cc1nc(SCCOc2ccc(Cl)cc2)[nH]c(=O)c1Cc1ccccc1`, the “growth rescue (activation)” value was inactive: 9.98%.

In the case of `Cc1cc(C)cc(C(=O)OCC(=O)N2CCCC2)c1`, the “growth rescue (activation)” value is inactive: 16.2%.

With `O=C(c1ccc(NS(=O)(=O)c2cccs2)cc1)N1CCOCC1`, the “growth rescue (activation)” value is inactive: 6.21%.

Turning to `CN(C)c1nc(-c2ccccc2)cc(C(F)(F)F)c1C#N`, the “growth rescue (activation)” value was inactive: 28.7%.

With `CC(=O)c1cc(CC(=O)N2CCc3c([nH]c4ccccc34)C2c2ccccn2)cs1` (centres undefined), the “growth rescue (activation)” value was inactive: -13.1%.

Consider `O=C(C1CCN(C2CCN(Cc3ccc4c(c3)CCO4)CC2)CC1)N1CCCC1`, for which the “growth rescue (activation)” value was inactive: -1.7%.

`C[C@H](NC(=O)c1ccco1)C(=O)Nc1ccc(C#N)cc1`: the “growth rescue (activation)” value is inactive: 5.01%.

In the case of `CCCCOC(=O)Nc1nnc(-c2ccccc2OC)s1`, the “growth rescue (activation)” value is inactive: 6.11%.

Turning to `CCCCN(CC)CCNC(=O)c1cc2c(=O)n(C)c3ccccc3c2s1`, the “growth rescue (activation)” value was inactive: -5.02%.

For `COc1ccc(NC(=O)CSc2nc3[nH]c(=O)[nH]c(=O)c3s2)cc1OC`, the “growth rescue (activation)” value is inactive: -3.74%.

On to `CCOC(=O)c1c(C)[nH]c(C)c1C(=O)COC(=O)c1cccnc1Cl`, for which the “growth rescue (activation)” value is inactive: 20.4%.

Take `Cc1ccc(CC(=S)N2CCOCC2)cc1`: the “growth rescue (activation)” value is inactive: 4.88%.

In the case of `O=C(NC1CCCc2ccccc21)c1cc(F)cc(F)c1` (centres undefined), the “growth rescue (activation)” value is inactive: 22.7%.

`Cc1nc(CC(=O)NNS(=O)(=O)c2ccc(F)c(Cl)c2)cs1`: the “growth rescue (activation)” value is inactive: 14.2%.

Take `Cc1cc(Oc2cc(N)cc([N+](=O)[O-])c2)ccc1Cl`: the “growth rescue (activation)” value is inactive: 13.4%.

`COc1ccc(-c2noc(CN(C)C(=O)c3ccoc3C)n2)cc1OC`: the “growth rescue (activation)” value was inactive: -1.95%.

Turning to `CCOC(=O)N(C)c1c(CC)nc2c(OCc3ccccc3)cccn12`, the “growth rescue (activation)” value was inactive: 0.505%.

Consider `COc1ccc(C(CNS(=O)(=O)c2ccc(NC(C)=O)c(OC)c2)N2CCCCC2)cc1` (centres undefined), for which the “growth rescue (activation)” value is inactive: 8.24%.

Turning to `CC(=O)c1ccc(N2CCN(C(=O)CCC(=O)c3cccs3)CC2)cc1`, the “growth rescue (activation)” value was inactive: 2.81%.

For `NS(=O)(=O)c1ccc(NC(=O)CN2CCN(S(=O)(=O)/C=C/c3ccccc3)CC2)cc1`, the “growth rescue (activation)” value is inactive: -15.3%.

For `Cc1noc(C)c1C(=O)OCC(=O)Nc1ncc(Cl)c(C)c1Cl`, the “growth rescue (activation)” value is inactive: 32.2%.

`O=C(Nc1ccccc1Cl)C1C2CCCCC21` (centres undefined): the “growth rescue (activation)” value was inactive: 12%.

For `CC1(C)CC(=O)C2=C(C1)N(c1ccccc1)C(N)=C(C#N)C2c1ccsc1` (centres undefined), the “growth rescue (activation)” value is inactive: -9.47%.

On to `CCC(C(=O)NC1CCCC1)N(C(=O)Cn1nnc(-c2ccc(C)o2)n1)c1ccc(OC)cc1` (centres undefined), for which the “growth rescue (activation)” value was inactive: 6.94%.

For `COc1cc(NC(=O)c2ccccc2)c(OC)cc1NC(=O)CN1CCOCC1`, the “growth rescue (activation)” value was inactive: -3.69%.

For `COc1ccc(CNC(=O)CNC(c2ccccc2)c2ccccc2)cc1OC`, the “growth rescue (activation)” value was inactive: -24.1%.

For `CC(SCc1ccccc1)C(=O)Nc1ccccc1-c1ccccc1` (centres undefined), the “growth rescue (activation)” value is inactive: 0.992%.

`Cc1ccnc(NS(=O)(=O)c2ccc(NC(=O)/C=C/c3ccccc3)cc2)n1`: the “growth rescue (activation)” value is inactive: 3.98%.

Take `COC(=O)C1CCN(C(=O)/C=C/c2ccccc2)CC1`: the “growth rescue (activation)” value is inactive: -12.3%.

As for `CCOC(=O)Cc1csc(SCC(=O)N2CCN(c3ccccc3)CC2)n1`, the “growth rescue (activation)” value is inactive: 37.9%.

Turning to `Cn1nc(-c2ccc(N3CCN(CCO)CC3)c([N+](=O)[O-])c2)c2ccccc2c1=O`, the “growth rescue (activation)” value was inactive: -0.771%.

As for `CSc1nc2ccccc2n1CC(=O)N1CCCCC1`, the “growth rescue (activation)” value was inactive: -17.3%.

Consider `O=C(O)C1Cc2ccccc2CN1C(=O)COc1ccc(Cl)cc1` (centres undefined), for which the “growth rescue (activation)” value was inactive: -4.19%.

In the case of `CCOc1ccccc1OCCn1nc2ccccc2n1`, the “growth rescue (activation)” value was inactive: 21.2%.

On to `Cc1ccccc1NC(=S)N1CCN(C(=O)c2ccco2)CC1`, for which the “growth rescue (activation)” value was inactive: 0.678%.

On to `O=S(=O)(Nc1ccccc1)c1cccc2nsnc12`, for which the “growth rescue (activation)” value is inactive: 9.36%.

In the case of `COc1ccc(Br)cc1CN1C(=O)NC2(CCCCCC2)C1=O`, the “growth rescue (activation)” value was inactive: -2.81%.

As to `CS(=O)(=O)c1ccccc1C(=O)Nc1ccc(S(=O)(=O)N2CCCC2)cc1`, the “growth rescue (activation)” value is inactive: 10%.

As for `CCOC(=O)CNC(=O)C1CCN(S(=O)(=O)c2ccc(-c3nn[nH]n3)cc2)CC1`, the “growth rescue (activation)” value is inactive: -0.977%.

Take `OC[C@@H]1CN(Cc2ccccc2)C[C@H](n2cnc3c(NCc4ccco4)ncnc32)O1`: the “growth rescue (activation)” value was inactive: 5.64%.

On to `COc1ccc(-c2cnnc(N/N=C/c3ccc(O)c(O)c3)n2)cc1`, for which the “growth rescue (activation)” value is inactive: 0.523%.
